{"source": "paper PMC6919601", "about": "“Identification of Plasmodium dipeptidyl aminopeptidase allosteric inhibitors by high throughput screening” (PLoS ONE, 2019)", "note": "About 230 (0.21%) of roughly 110,000 compounds showed an effect of 50% or more. Some of the results follow.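 Also: 30 min substrate incubation versus DMSO and 10 µM JCP410 controls.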", "data": [{"target": "DPAP1 (Plasmodium falciparum, UniProt Q8IIJ9)", "sequence (Q8IIJ9 whole entry, looked up)": "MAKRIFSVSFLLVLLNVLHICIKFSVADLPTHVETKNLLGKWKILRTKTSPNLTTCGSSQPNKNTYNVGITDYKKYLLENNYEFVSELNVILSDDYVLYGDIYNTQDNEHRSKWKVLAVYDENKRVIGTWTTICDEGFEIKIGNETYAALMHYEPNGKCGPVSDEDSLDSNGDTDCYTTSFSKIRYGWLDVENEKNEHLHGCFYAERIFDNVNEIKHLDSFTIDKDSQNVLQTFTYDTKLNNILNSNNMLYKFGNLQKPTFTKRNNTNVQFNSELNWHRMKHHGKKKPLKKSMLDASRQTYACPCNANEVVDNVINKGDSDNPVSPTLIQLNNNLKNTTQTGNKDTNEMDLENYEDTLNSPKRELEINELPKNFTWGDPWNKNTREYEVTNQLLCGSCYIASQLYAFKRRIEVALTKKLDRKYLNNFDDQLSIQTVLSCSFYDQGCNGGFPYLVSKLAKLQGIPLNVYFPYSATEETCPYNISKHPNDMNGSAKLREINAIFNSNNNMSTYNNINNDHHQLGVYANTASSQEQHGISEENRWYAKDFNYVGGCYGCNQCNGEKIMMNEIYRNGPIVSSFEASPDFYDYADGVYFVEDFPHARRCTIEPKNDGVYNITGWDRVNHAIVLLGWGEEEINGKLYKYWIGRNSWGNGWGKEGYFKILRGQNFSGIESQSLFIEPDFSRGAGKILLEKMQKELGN", "assay": "primary screen, percent inhibition; read by cleavage of a fluorogenic dipeptide substrate; higher = more effect of the substance", "parameters": "species or system P. falciparum D10 trophozoite lysates; single well", "units": {"% Inhibition @ 10 uM": "%"}, "values": [{"smiles": "CC1CN(C(=O)c2ccccc2)c2ccccc2NC1=O", "note": "(centres unmarked)", "% Inhibition @ 10 uM": -6.74}, {"smiles": "Cc1coc2c(C)c3oc(=O)c(CCC(=O)NCc4ccco4)c(C)c3cc12", "% Inhibition @ 10 uM": 0.895}, {"smiles": "CC1=C(c2ccc(C)cc2)S(=O)(=O)N=C1N1CCOCC1", "% Inhibition @ 10 uM": 8.36}, {"smiles": "CO/C(O)=C1\\C(C)=NC2=C(C(=O)CC(c3cccs3)C2)C1c1ccc(C)o1", "note": "(centres unmarked)", "% Inhibition @ 10 uM": -6.6}, {"smiles": "CCSc1nnc2n(CCOc3ccccc3)c3ccccc3n12", "% Inhibition @ 10 uM": -0.499}, {"smiles": "CN(C)c1nc(N)nc(COC(=O)c2nn(-c3ccccc3)nc2N)n1", "% Inhibition @ 10 uM": -0.348}, {"smiles": "c1ccc2c(c1)nc(NCCc1c[nH]c3ccccc13)c1nnnn12", "% Inhibition @ 10 uM": -6.22}, {"smiles": "COc1ccc(-n2c(C)ccc2-c2ccccc2)cn1", "% Inhibition @ 10 uM": -4.93}, {"smiles": "COc1ccc(C(=O)N2CCN(Cc3cc(OC)c(OC)cc3OC)CC2)cc1", "% Inhibition @ 10 uM": -4.84}, {"smiles": "CN1C(=O)NC(=O)/C(=C/c2cn(C)c3ccccc23)C1=O", "% Inhibition @ 10 uM": 7.67}, {"smiles": "CC(C)Cc1cc(C(=O)N2CCN(C(c3ccccc3)c3ccccc3)CC2)no1", "% Inhibition @ 10 uM": -11.5}, {"smiles": "CC(C)CCC1CC1C(=O)Nc1ccc(Cl)cc1", "note": "(centres unmarked)", "% Inhibition @ 10 uM": -1.42}, {"smiles": "CC(C(=O)NCCc1ccccc1F)N1C(=O)c2ccccc2C1=O", "note": "(centres unmarked)", "% Inhibition @ 10 uM": 2.18}, {"smiles": "N#CCc1ccc(NC(=O)C(c2ccccc2)c2ccccc2)cc1", "% Inhibition @ 10 uM": -3.34}, {"smiles": "CC(C)c1ccc(N2CCN(c3ccc(NC(=O)CCC(=O)O)cc3)CC2)cc1", "% Inhibition @ 10 uM": 2.49}, {"smiles": "O=C(CCCn1c(SCC(=O)c2ccccc2)nc2ccsc2c1=O)NCCc1ccccc1", "% Inhibition @ 10 uM": 3.54}, {"smiles": "Cc1ccc(C(=O)/C(=C/c2ccc(F)cc2)n2cncn2)cc1", "% Inhibition @ 10 uM": 3.27}, {"smiles": "COc1ccc(CCNC(=O)CN(C)S(=O)(=O)c2ccc3nc(O)ccc3c2)cc1OC", "% Inhibition @ 10 uM": -5.85}, {"smiles": "Cc1c(C(c2ccccc2Cl)c2c(C)n(C)n(-c3ccccc3)c2=O)c(=O)n(-c2ccccc2)n1C", "% Inhibition @ 10 uM": -4.87}, {"smiles": "CCCN1CCC(N2CC=C(c3ccc(F)cc3)CC2)CC1", "% Inhibition @ 10 uM": -1.21}, {"smiles": "CCc1ccc(-c2cc3c(=O)n(CC(=O)NCc4cccnc4)nc(C)n3n2)cc1", "% Inhibition @ 10 uM": 2.27}, {"smiles": "N#Cc1nc(/C=C/c2ccc(F)cc2)oc1NCCc1ccccc1", "% Inhibition @ 10 uM": -0.808}, {"smiles": "COc1cc(-c2[nH]nc3c2C(c2ccc(C(F)(F)F)cc2)C(C#N)=C(N)O3)cc(OC)c1OC", "note": "(centres unmarked)", "% Inhibition @ 10 uM": 8.6}, {"smiles": "N#CC1=C(N)Oc2[nH]nc(-c3ccccc3)c2C1c1cc2c(cc1Cl)OCO2", "note": "(centres unmarked)", "% Inhibition @ 10 uM": -6.34}, {"smiles": "COc1cccc2c(O)c(C/C=C(/C)Cl)c(C)nc12", "% Inhibition @ 10 uM": 5.2}, {"smiles": "Cc1cc(N)c(O)c(-n2nc3ccccc3n2)c1", "% Inhibition @ 10 uM": -6.75}, {"smiles": "O=C(O)CCC(=O)Nc1ccc(Br)cc1", "% Inhibition @ 10 uM": -0.0372}, {"smiles": "N#Cc1c(NC(=S)NC(=O)C23CC4CC(CC(C4)C2)C3)sc2c1CCC2", "% Inhibition @ 10 uM": -1.69}, {"smiles": "CCOc1ccc(C2c3c(-c4cc(C)ccc4O)n[nH]c3C(=O)N2CCO)cc1OCC", "note": "(centres unmarked)", "% Inhibition @ 10 uM": 5.35}, {"smiles": "Cn1cccc1Cc1nnc(SCC(=O)NCCc2ccccc2)n1C", "% Inhibition @ 10 uM": -2.14}, {"smiles": "CC(C)NC(=O)c1ccc(C2SCC(=O)N2CCc2ccccc2)cc1", "note": "(centres unmarked)", "% Inhibition @ 10 uM": -5.21}, {"smiles": "Cn1c(C(=O)NCc2ccccn2)cc2oc3ccccc3c21", "% Inhibition @ 10 uM": -0.281}, {"smiles": "COc1ccc(CC(=O)Nc2cccc(NC(C)=O)c2)cc1", "% Inhibition @ 10 uM": 4.06}, {"smiles": "O=C(c1ccc(Br)o1)N1CCN(c2ccc(Cl)cc2)CC1", "% Inhibition @ 10 uM": -2.2}, {"smiles": "CC(/C=C(\\O)c1cccnc1)=N\\c1cc(C)ccc1Cl", "% Inhibition @ 10 uM": -4.75}, {"smiles": "O=P(O)(COc1ccccc1O)c1ccccc1", "% Inhibition @ 10 uM": -4.23}, {"smiles": "NC(Cc1c[nH]c2ccc(OCc3ccccc3)cc12)C(=O)O", "note": "(centres unmarked)", "% Inhibition @ 10 uM": -3.65}, {"smiles": "COc1cccc(N(CC(=O)Nc2ccc(CC#N)cc2)S(=O)(=O)c2ccc(C)cc2)c1", "% Inhibition @ 10 uM": -18.8}, {"smiles": "COc1ccccc1-n1nnc(S(=O)(=O)c2ccc(C)cc2)c1C", "% Inhibition @ 10 uM": -3.85}, {"smiles": "CCCC(=O)Nc1ccc(N(CC)CC)cc1", "% Inhibition @ 10 uM": -3.04}, {"smiles": "Clc1ccc(-c2cn3c4ccccc4nc3n2CCN2CCCC2)cc1", "% Inhibition @ 10 uM": -5.16}, {"smiles": "Cc1ccc(Cn2c(=N)n(CC(=O)O)c3ccccc32)cc1", "% Inhibition @ 10 uM": 1.34}, {"smiles": "CC(NC(=O)OCCOc1ccccc1)(C(F)(F)F)C(F)(F)F", "% Inhibition @ 10 uM": -1.33}, {"smiles": "C=CCNS(=O)(=O)c1sccc1/C=N/O", "% Inhibition @ 10 uM": -1.42}, {"smiles": "CCSc1nc(O)c(C(C)CC)c(O)n1", "note": "(centres unmarked)", "% Inhibition @ 10 uM": -0.351}, {"smiles": "Cn1ccc(C(=O)Nc2sc3c(c2C(N)=O)CCCCC3)n1", "% Inhibition @ 10 uM": 47}, {"smiles": "Cc1cc(/C=C2\\NC(=O)N(Cc3ccc(Cl)cc3)C2=O)c(C)n1-c1cccnc1", "% Inhibition @ 10 uM": 2.17}, {"smiles": "CC1C2CC(C(S(=O)(=O)NC(C)(C)C)/C2=N/O)C1(C)C", "note": "(centres unmarked)", "% Inhibition @ 10 uM": 0.937}, {"smiles": "Cc1nn(C)c(C)c1Sc1ccc(Br)cc1", "% Inhibition @ 10 uM": -3.14}, {"smiles": "CN1CCN(CCOC2c3ccccc3CSc3ccc(Cl)cc32)CC1", "note": "(centres unmarked)", "% Inhibition @ 10 uM": 6.08}, {"smiles": "O=C(Nc1ccc(-c2cn3cccnc3n2)cc1)c1ccccc1Br", "% Inhibition @ 10 uM": 5.07}, {"smiles": "CC/N=C1\\S/C(=C\\c2cc(Br)ccc2O)C(=O)N1CC", "% Inhibition @ 10 uM": 24.1}, {"smiles": "COc1cc(-c2nc3ccc4ccccc4c3c3c2CCC3)cc(OC)c1OC", "% Inhibition @ 10 uM": -7.11}, {"smiles": "O=C(O)CCCNC(=O)c1ccco1", "% Inhibition @ 10 uM": 4.74}, {"smiles": "COc1ccc(NC(=O)CN(c2ccccc2F)S(C)(=O)=O)cc1OC", "% Inhibition @ 10 uM": -3.13}, {"smiles": "COc1ccccc1C(=O)Nc1ccc2c(c1)C(=O)N(C1CCCCC1)C2=O", "% Inhibition @ 10 uM": -2.32}, {"smiles": "CCOc1ccc(/C=c2\\sc3nc(=O)c(-c4ccccc4)nn3c2=O)cc1OCC", "% Inhibition @ 10 uM": -9.16}, {"smiles": "COc1ccc(Cl)cc1N(CC(=O)NCc1ccccc1Cl)S(C)(=O)=O", "% Inhibition @ 10 uM": -3.29}, {"smiles": "COc1cccc(C(=O)Nc2cc(Cl)ccc2Cl)c1", "% Inhibition @ 10 uM": -6.78}, {"smiles": "CCn1c(O)cc(=O)nc1SCc1ccccc1", "% Inhibition @ 10 uM": 3.48}, {"smiles": "CCOP(=O)(O)CCNCc1ccccc1", "% Inhibition @ 10 uM": 1.21}, {"smiles": "COc1ccc(Cc2nn3c(-c4ccccc4)nnc3s2)cc1", "% Inhibition @ 10 uM": 6.49}, {"smiles": "COCCCNC(=O)C1CCCN(c2nnc(C)c3c(C)n(-c4ccccc4)nc23)C1", "note": "(centres unmarked)", "% Inhibition @ 10 uM": -4.74}, {"smiles": "C1=C(c2cccc3ccccc23)N2CCN=C2S1", "% Inhibition @ 10 uM": 3.06}, {"smiles": "COc1cc(N2CCN(c3ccncc3S(=O)(=O)N3CCCCC3)CC2)cc(OC)c1OC", "% Inhibition @ 10 uM": -4.07}]}]}
